{"source": "a collection of fitness landscapes (doi:10.1016/j.celrep.2020.107928)", "parents": {"B1": {"name": "Caulobacter ParB omega fusion; a variant is named by its letters at X, in order, B8GW30 (parent)", "chain": "MESVVVGEPGMSEGRRGLGRGLSALLGEVDAAPAQAPGEQLGGSREAPIEILQRNPDQPRRTFREEDLEDLSNSIREKGVLQPILVRPSPDTAGEYQIVAGERAWRAAQRAGLKTVPIMVRELDDLAVLEIGIIENVQRADLNVLEEALSYKVLMEKFERTQENIAQTIGKSXSHVANXMRLLXLPDEVQSYLVSGELTAXHARAIAAAADPVALAKQIIEGGLSVRETEALARKAPNLSAGKSKGGRPPRVKDTDTQALESDLSSVLGLDVSIDHRGSTGTLTITYATLEQLDDLCNRLTRGI"}}, "note": "Whole data set: some 81,000 sequences, median “one-hybrid fitness for binding parS DNA” near -0.17, cut for the highest 2% near 0.51. This is one part of the list."}
{"variants_of": "B1", "assay": "one-hybrid fitness for binding parS DNA (scaled: cognate 1, non-cognate 0); higher = stronger binding", "details": "with parS DNA site", "outline": "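In E. coli USO, a HIS3 reporter with its site placed 19 bp from the promoter was used to select Caulobacter ParB variants randomised at four specificity codons. Growth lasted 48 hours at 37°C on histidine-free M9 containing 0.1 mM IPTG and 5 mM 3-AT. Fitness was taken as the log change in variant-to-wild-type read ratio from Illumina sequencing of pre- and post-selection plasmids, rescaled between the non-cognate and cognate sites.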"}
{"variant": "AGLY", "one-hybrid fitness for binding parS DNA": "≤ 0.2"}
{"variant": "MNVT", "one-hybrid fitness for binding parS DNA": "≤ 0.2"}
{"variant": "LWRK", "one-hybrid fitness for binding parS DNA": "≤ 0.2"}
{"variant": "HATP", "one-hybrid fitness for binding parS DNA": "≤ 0.2"}
{"variant": "ERWC", "one-hybrid fitness for binding parS DNA": "≤ 0.2"}
{"variant": "WMLR", "one-hybrid fitness for binding parS DNA": "≤ 0.2"}
{"variant": "YKWS", "one-hybrid fitness for binding parS DNA": "≤ 0.2"}
{"variant": "LIRG", "one-hybrid fitness for binding parS DNA": "≤ 0.2"}
{"variant": "TGDN", "one-hybrid fitness for binding parS DNA": "≤ 0.2"}
{"variant": "GYEV", "one-hybrid fitness for binding parS DNA": "≤ 0.2"}
{"variant": "QQMR", "one-hybrid fitness for binding parS DNA": "≤ 0.2"}
{"variant": "EGIR", "one-hybrid fitness for binding parS DNA": "≤ 0.2"}
{"variant": "YSPA", "one-hybrid fitness for binding parS DNA": "≤ 0.2"}
{"variant": "RSYK", "one-hybrid fitness for binding parS DNA": "≤ 0.2"}
{"variant": "FAMC", "one-hybrid fitness for binding parS DNA": "≤ 0.2"}
{"variant": "VKLQ", "one-hybrid fitness for binding parS DNA": "≤ 0.2"}
{"variant": "PMVL", "one-hybrid fitness for binding parS DNA": "≤ 0.2"}
{"variant": "QHLE", "one-hybrid fitness for binding parS DNA": "≤ 0.2"}
{"variant": "QIRH", "one-hybrid fitness for binding parS DNA": "≤ 0.2"}
{"variant": "RAHV", "one-hybrid fitness for binding parS DNA": "≤ 0.2"}
{"variant": "ICRR", "one-hybrid fitness for binding parS DNA": "≤ 0.2"}
{"variant": "RNRH", "one-hybrid fitness for binding parS DNA": "≤ 0.2"}
{"variant": "RIPY", "one-hybrid fitness for binding parS DNA": 0.232}
{"variant": "DYGS", "one-hybrid fitness for binding parS DNA": "≤ 0.2"}
{"variant": "IRIC", "one-hybrid fitness for binding parS DNA": "≤ 0.2"}
{"variant": "RATL", "one-hybrid fitness for binding parS DNA": "≤ 0.2"}
{"variant": "SVMW", "one-hybrid fitness for binding parS DNA": "≤ 0.2"}
{"variant": "LLAE", "one-hybrid fitness for binding parS DNA": "≤ 0.2"}
{"variant": "WPHN", "one-hybrid fitness for binding parS DNA": "≤ 0.2"}
{"variant": "DYGR", "one-hybrid fitness for binding parS DNA": "≤ 0.2"}
{"variant": "PEMG", "one-hybrid fitness for binding parS DNA": "≤ 0.2"}
{"variant": "CMKL", "one-hybrid fitness for binding parS DNA": "≤ 0.2"}
{"variant": "RVVG", "one-hybrid fitness for binding parS DNA": 0.942}
{"variant": "TEAA", "one-hybrid fitness for binding parS DNA": "≤ 0.2"}
{"variant": "CATF", "one-hybrid fitness for binding parS DNA": "≤ 0.2"}
{"variant": "PAWE", "one-hybrid fitness for binding parS DNA": "≤ 0.2"}
{"variant": "RLMR", "one-hybrid fitness for binding parS DNA": "≤ 0.2"}
{"variant": "DERS", "one-hybrid fitness for binding parS DNA": "≤ 0.2"}
{"variant": "QMRY", "one-hybrid fitness for binding parS DNA": "≤ 0.2"}
{"variant": "RKDN", "one-hybrid fitness for binding parS DNA": 0.329}
{"variant": "GKLS", "one-hybrid fitness for binding parS DNA": "≤ 0.2"}
{"variant": "ICQS", "one-hybrid fitness for binding parS DNA": "≤ 0.2"}
{"variant": "HRQN", "one-hybrid fitness for binding parS DNA": "≤ 0.2"}
{"variant": "PPMT", "one-hybrid fitness for binding parS DNA": "≤ 0.2"}
{"variant": "VPDE", "one-hybrid fitness for binding parS DNA": "≤ 0.2"}
{"variant": "GQVQ", "one-hybrid fitness for binding parS DNA": "≤ 0.2"}
{"variant": "YFGS", "one-hybrid fitness for binding parS DNA": "≤ 0.2"}
{"variant": "PPGY", "one-hybrid fitness for binding parS DNA": "≤ 0.2"}
{"variant": "DNIG", "one-hybrid fitness for binding parS DNA": "≤ 0.2"}
{"variant": "KPRI", "one-hybrid fitness for binding parS DNA": "≤ 0.2"}
{"variant": "SWPL", "one-hybrid fitness for binding parS DNA": "≤ 0.2"}
{"variant": "NWKR", "one-hybrid fitness for binding parS DNA": "≤ 0.2"}
{"variant": "GLNM", "one-hybrid fitness for binding parS DNA": "≤ 0.2"}
{"variant": "GFPR", "one-hybrid fitness for binding parS DNA": "≤ 0.2"}
{"variant": "RNAH", "one-hybrid fitness for binding parS DNA": "≤ 0.2"}
{"variant": "QEWT", "one-hybrid fitness for binding parS DNA": "≤ 0.2"}
{"variant": "GNLS", "one-hybrid fitness for binding parS DNA": "≤ 0.2"}
{"variant": "MGMT", "one-hybrid fitness for binding parS DNA": "≤ 0.2"}
{"variant": "TTMC", "one-hybrid fitness for binding parS DNA": "≤ 0.2"}
{"variant": "WVAC", "one-hybrid fitness for binding parS DNA": "≤ 0.2"}
{"variant": "QAKY", "one-hybrid fitness for binding parS DNA": "≤ 0.2"}
{"variant": "CPAM", "one-hybrid fitness for binding parS DNA": "≤ 0.2"}
{"variant": "QNER", "one-hybrid fitness for binding parS DNA": "≤ 0.2"}
{"variant": "THAR", "one-hybrid fitness for binding parS DNA": "≤ 0.2"}
{"variant": "GQWG", "one-hybrid fitness for binding parS DNA": "≤ 0.2"}
{"variant": "HRRG", "one-hybrid fitness for binding parS DNA": 0.355}
{"variant": "GPLI", "one-hybrid fitness for binding parS DNA": "≤ 0.2"}
{"variant": "IGRW", "one-hybrid fitness for binding parS DNA": "≤ 0.2"}
{"variant": "SGSV", "one-hybrid fitness for binding parS DNA": "≤ 0.2"}
{"variant": "TWDE", "one-hybrid fitness for binding parS DNA": "≤ 0.2"}
{"variant": "IVNW", "one-hybrid fitness for binding parS DNA": "≤ 0.2"}
{"variant": "DIPP", "one-hybrid fitness for binding parS DNA": "≤ 0.2"}
{"variant": "QAYT", "one-hybrid fitness for binding parS DNA": "≤ 0.2"}
{"variant": "RNQH", "one-hybrid fitness for binding parS DNA": "≤ 0.2"}
{"variant": "RGAS", "one-hybrid fitness for binding parS DNA": 0.734}
{"variant": "SQMG", "one-hybrid fitness for binding parS DNA": "≤ 0.2"}
{"variant": "LARG", "one-hybrid fitness for binding parS DNA": "≤ 0.2"}
{"variant": "TYNN", "one-hybrid fitness for binding parS DNA": "≤ 0.2"}
{"variant": "NNSM", "one-hybrid fitness for binding parS DNA": "≤ 0.2"}
{"variant": "YLSK", "one-hybrid fitness for binding parS DNA": "≤ 0.2"}
{"variant": "TKTL", "one-hybrid fitness for binding parS DNA": "≤ 0.2"}
{"variant": "WHHR", "one-hybrid fitness for binding parS DNA": "≤ 0.2"}
{"variant": "IVYS", "one-hybrid fitness for binding parS DNA": "≤ 0.2"}
{"variant": "AIGT", "one-hybrid fitness for binding parS DNA": "≤ 0.2"}
{"variant": "TFPE", "one-hybrid fitness for binding parS DNA": "≤ 0.2"}
{"variant": "KLND", "one-hybrid fitness for binding parS DNA": "≤ 0.2"}
{"variant": "LPTR", "one-hybrid fitness for binding parS DNA": "≤ 0.2"}
{"variant": "VCPS", "one-hybrid fitness for binding parS DNA": "≤ 0.2"}
{"variant": "DPQI", "one-hybrid fitness for binding parS DNA": "≤ 0.2"}
{"variant": "RWTI", "one-hybrid fitness for binding parS DNA": "≤ 0.2"}
{"variant": "QICI", "one-hybrid fitness for binding parS DNA": "≤ 0.2"}
{"variant": "GTMM", "one-hybrid fitness for binding parS DNA": "≤ 0.2"}
{"variant": "TGKR", "one-hybrid fitness for binding parS DNA": "≤ 0.2"}
{"variant": "SEMK", "one-hybrid fitness for binding parS DNA": "≤ 0.2"}
{"variant": "PFAA", "one-hybrid fitness for binding parS DNA": "≤ 0.2"}
{"variant": "CLTK", "one-hybrid fitness for binding parS DNA": "≤ 0.2"}
{"variant": "VYYC", "one-hybrid fitness for binding parS DNA": "≤ 0.2"}
{"variant": "HRDW", "one-hybrid fitness for binding parS DNA": "≤ 0.2"}
{"variant": "GMLR", "one-hybrid fitness for binding parS DNA": "≤ 0.2"}
{"variant": "CGHT", "one-hybrid fitness for binding parS DNA": "≤ 0.2"}
{"variant": "HDNK", "one-hybrid fitness for binding parS DNA": "≤ 0.2"}
{"variant": "PRHV", "one-hybrid fitness for binding parS DNA": "≤ 0.2"}
{"variant": "EIHM", "one-hybrid fitness for binding parS DNA": "≤ 0.2"}
{"variant": "RLAM", "one-hybrid fitness for binding parS DNA": 0.342}
{"variant": "RRSL", "one-hybrid fitness for binding parS DNA": "≤ 0.2"}
{"variant": "LCIW", "one-hybrid fitness for binding parS DNA": "≤ 0.2"}
{"variant": "EEAG", "one-hybrid fitness for binding parS DNA": "≤ 0.2"}
{"variant": "PSPK", "one-hybrid fitness for binding parS DNA": "≤ 0.2"}
{"variant": "RNFC", "one-hybrid fitness for binding parS DNA": 0.627}
{"variant": "ESKV", "one-hybrid fitness for binding parS DNA": "≤ 0.2"}
{"variant": "QVLF", "one-hybrid fitness for binding parS DNA": "≤ 0.2"}
{"variant": "EYSC", "one-hybrid fitness for binding parS DNA": "≤ 0.2"}
{"variant": "YADT", "one-hybrid fitness for binding parS DNA": "≤ 0.2"}
{"variant": "WSGV", "one-hybrid fitness for binding parS DNA": "≤ 0.2"}
{"variant": "QLTK", "one-hybrid fitness for binding parS DNA": "≤ 0.2"}
{"variant": "RENR", "one-hybrid fitness for binding parS DNA": "≤ 0.2"}
{"variant": "CEST", "one-hybrid fitness for binding parS DNA": "≤ 0.2"}
{"variant": "LTLC", "one-hybrid fitness for binding parS DNA": "≤ 0.2"}
{"variant": "CSYC", "one-hybrid fitness for binding parS DNA": "≤ 0.2"}
{"variant": "PLNK", "one-hybrid fitness for binding parS DNA": "≤ 0.2"}
{"variant": "TVGS", "one-hybrid fitness for binding parS DNA": "≤ 0.2"}
{"variant": "MWTG", "one-hybrid fitness for binding parS DNA": "≤ 0.2"}
{"variant": "GETS", "one-hybrid fitness for binding parS DNA": "≤ 0.2"}
{"variant": "RAMR", "one-hybrid fitness for binding parS DNA": "≤ 0.2"}
{"variant": "ERNS", "one-hybrid fitness for binding parS DNA": "≤ 0.2"}
{"variant": "DINC", "one-hybrid fitness for binding parS DNA": "≤ 0.2"}
{"variant": "CEER", "one-hybrid fitness for binding parS DNA": "≤ 0.2"}
{"variant": "LLDC", "one-hybrid fitness for binding parS DNA": "≤ 0.2"}
{"variant": "GLQC", "one-hybrid fitness for binding parS DNA": "≤ 0.2"}
{"variant": "PPNP", "one-hybrid fitness for binding parS DNA": "≤ 0.2"}
{"variant": "WRTT", "one-hybrid fitness for binding parS DNA": "≤ 0.2"}
{"variant": "CQKR", "one-hybrid fitness for binding parS DNA": "≤ 0.2"}
{"variant": "PCGC", "one-hybrid fitness for binding parS DNA": "≤ 0.2"}
{"variant": "VYRS", "one-hybrid fitness for binding parS DNA": "≤ 0.2"}
{"variant": "RTLN", "one-hybrid fitness for binding parS DNA": 0.43}
{"variant": "YNAF", "one-hybrid fitness for binding parS DNA": "≤ 0.2"}
{"variant": "LPEI", "one-hybrid fitness for binding parS DNA": "≤ 0.2"}
{"variant": "RERI", "one-hybrid fitness for binding parS DNA": "≤ 0.2"}
{"variant": "HYTL", "one-hybrid fitness for binding parS DNA": "≤ 0.2"}
{"variant": "TNSW", "one-hybrid fitness for binding parS DNA": "≤ 0.2"}
{"variant": "SPDA", "one-hybrid fitness for binding parS DNA": "≤ 0.2"}
{"variant": "QPYI", "one-hybrid fitness for binding parS DNA": "≤ 0.2"}
{"variant": "ASLF", "one-hybrid fitness for binding parS DNA": "≤ 0.2"}
{"variant": "DAAY", "one-hybrid fitness for binding parS DNA": "≤ 0.2"}
{"variant": "LTVV", "one-hybrid fitness for binding parS DNA": "≤ 0.2"}
{"variant": "TKWR", "one-hybrid fitness for binding parS DNA": "≤ 0.2"}
{"variant": "TYHD", "one-hybrid fitness for binding parS DNA": "≤ 0.2"}
{"variant": "GDKK", "one-hybrid fitness for binding parS DNA": "≤ 0.2"}
{"variant": "GWLA", "one-hybrid fitness for binding parS DNA": "≤ 0.2"}
{"variant": "HFPS", "one-hybrid fitness for binding parS DNA": "≤ 0.2"}
{"variant": "RIIG", "one-hybrid fitness for binding parS DNA": 0.924}
{"variant": "KKDS", "one-hybrid fitness for binding parS DNA": "≤ 0.2"}
{"variant": "QVKC", "one-hybrid fitness for binding parS DNA": "≤ 0.2"}
